Source: the supplement of paper PMC11417369
± gives the standard deviation of the averaged measurements. The list shows a part of the results.

system: PfAP2-EXP AP2 domain (GST-tagged); experiment: gcPBM binding intensity (ln(normalized median fluorescence intensity)); higher = stronger DNA binding
Method in brief: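 Probes on an Agilent 4 × 180k array were primer-extended, double-stranded and 36 bp long, taken from intergenic genomic regions, with negative controls added. GST-tagged P. falciparum DNA-binding domains from E. coli, about 25 μg on average, were applied to the array for 1 h in 1× PBS containing 1% milk, 0.2 mg/ml BSA, 0.5% salmon testes DNA and 0.03% Triton X-100. Binding intensity, obtained after Alexa488 anti-GST antibody detection and a 488 nm scan, is the highest Masliner-normalised natural-log median intensity across replicate spots of either probe orientation.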

Sequence | gcPBM binding intensity (ln)
TATTACTTATAAATTACACACAAATGATTGAACATT [CACACA_site2259] | 8.29 ± 0.38
TTAATTACATGTAATTGTACTTAATTATAAGACATT [XGTACX_site464] | 8.44 ± 0.27
TATACCTTTTTATTCACACATATATGTCATATGTCA [CACACA_site5423] | 8.98 ± 0.43
TTTTACCTAAATATCACACATATTTAAATATATATA [CACACA_site5597] | 8.43 ± 0.36
TTAAAATAAAGAAAATGTACATAAATAAAAATAAAG [XGTACX_site2280] | 9.11 ± 0.26
CATGTTATGATTCCATGTACTTATAGCATTAAAAAA [XGTACX_site8939] | 8.46 ± 0.057
TTTTTTTAATTAGTTTGTACATATTGTTATAATATA [XGTACX_site6294] | 8.56 ± 0.4
ATTATACCACCCGATATACACACTTGTAGACATCTT [CACACA_site7944] | 8.74 ± 0.47
AAAAAAAAATACATATGTACTTATGTATAATGTTGT [XGTACX_site8104] | 8.58 ± 0.33
TATATTAAACCATGTAGTACCTTGAATAAATATTAT [XGTACX_site8254] | 8.43 ± 0.32
ATAAAAAGGAGACACACACACACACGCATATTTATA [CACACA_site6551] | 8.82 ± 0.67
AACATATATATATATACATGCATATGAACAACGAAT [TGCATGCA_site93] | 9.34 ± 0.48
TGTATAAATATAATCACACATATATATATATATATA [CACACA_site4365] | 10.3 ± 0.73
TATAAAAATGTTTACACACACACATAAATATATTTT [CACACA_site2512] | 8.51 ± 0.41
TTTTTTTTTTTTCTGAGTACGAAAAATAGAGATAGA [XGTACX_site3825] | 8.7 ± 0.53
AAGTTACAAAATCAAAAGGAAAAAATATAAAATAAT [CACACA_negctrl_site561] | 8.72 ± 0.3
CAAGAAAATTGACACACACACATATTTATATTTATA [CACACA_site7766] | 8.36 ± 0.48
ATGAATAAATTAAAAATGCACACTTTGATGGGTACA [CACACA_site2157] | 8.32 ± 0.092
TATATATATATATATACACACTATATAATTCAAACA [CACACA_site4712] | 10.1 ± 0.33
TATACCAGTTTTAAAAGTACTTGTGCATAAAAAATA [XGTACX_site4794] | 8.85 ± 0.099
TTACGATTATACAAAAGTACATGTATTACACAATAT [XGTACX_site5138] | 8.6 ± 0.33
AAATTGGGGCTTGTTACACACTTAGTGGGAGTTCTA [CACACA_site4485] | 8.84 ± 0.6
AAACTTGTAAGAAACACACACACACCCATATATATA [CACACA_site797] | 8.86 ± 0.31

Sequence | gcPBM binding intensity (ln)
AAATTATATTCAAGTGCATGTAACTTATTATTATAT [TGCATGCA_site526] | 8.71 ± 0.28
CACTATATAAGAACCTGTACTCAATTTTGCAATATA [XGTACX_site7238] | 8.57 ± 0.29
ATATTTATTTATTTATGTACGCACACAGTTGATATT [XGTACX_site5808] | 8.92 ± 0.4
TAATAATAAAAATAAACACACATATATATGTATATA [CACACA_site2853] | 8.39 ± 0.32
TATATTTTCCTGCAAACACACATATAAATGTGTAGA [CACACA_site533] | 8.35 ± 0.3
TATAATCAATATGTAACACACAAAAGTTATATACTT [CACACA_site7368] | 8.37 ± 0.44
AACATGCTCAACTTTTTTTTTTTTTTTTTTTTTTTT [CACACA_negctrl_site1617] | 9.08 ± 0.11
GTAAAAATAAAAACTGGTACACAAGTTGTTATAAAA [XGTACX_site502] | 8.54 ± 0.33
AAAATAAAATAAAAGTGTACGTTTTAAGAACATTGA [XGTACX_site2382] | 8.55 ± 0.33
CTTTTTTGTTAAAGTGTGCGCAATAGTTATAGACTT [GTGCAC_site9670] | 8.81 ± 0.42
AATCTTAAAAATATATGTACTAAAAAAAAAAAAAAT [XGTACX_site6195] | 8.37 ± 0.47
ATTCTCCAAGTTTGATGTACACATATGACGACGGCG [XGTACX_site4912] | 8.75 ± 0.42
TTTTTATATTTAATGTGTCCTCACTTAAAAGGATGA [XGTACX_site2744] | 8.27 ± 0.27
TATAATAATTATACATGTACACATTATTTGGATAAA [XGTACX_site5552] | 8.49 ± 0.3
AATATATTTTTTGGTTGTACAGAGATCTTTGTAGAA [XGTACX_site1707] | 8.55 ± 0.49
TACAATAAGGATAAGTGTACATATGTGCATACATAT [XGTACX_site7188] | 8.58 ± 0.24
AAAAATTATAGAAAAGTGCAATACATGTTACACCAT | 8.635 ± 0.064
CATATAGCATAATCATGTACACATACAACAAATAGG [XGTACX_site1589] | 8.88 ± 0.3
TTCACCAGTTGGTAAACATGCAATTTTCCATACAAG [TGCATGCA_site267] | 8.48 ± 0.35
ATATAAATACATAAATGTACTTACCATTTAAATATG [XGTACX_site5254] | 8.39 ± 0.3
AAAAAAAACGGACACACACACATACCCATACATACA [CACACA_site5574] | 8.78 ± 0.49
ATTCTTTTAAAATAGGTGCTAAAAATAATATGTTAC | 8.71 ± 0.16
ATATAAACAATATTTTGTACATAATTTTATGAGCAT [XGTACX_site6933] | 8.43 ± 0.4

Sequence | gcPBM binding intensity (ln)
AAAGAAAGAAGAAATTGTACATAATAAATAAGTAAA [XGTACX_site3311] | 8.64 ± 0.49
GCATATGTTTATTGCACACACCAAAAAGAAAACATA [CACACA_site4384] | 8.76 ± 0.4
ATTATTTGTTTAATGAGTACGAAGACAAATTTTACC [XGTACX_site5223] | 8.93 ± 0.42
GTACTATACAAAGATGATAATCAATATATATATATA [XGTACX_negctrl_site264] | 10.1 ± 0.26
TATATACACAGACACACACACACATACACGCACATA [CACACA_site6909] | 8.72 ± 0.4
AAAGGAAAAAAAAGCACACACAATATTACTTGAAAT [CACACA_site2588] | 8.65 ± 0.67
TACATTTATATATATACACACACACTAATAAAAAAA [CACACA_site8845] | 8.77 ± 0.64
TAAATACAGATATATACACACATATATATATTTTAT [CACACA_site5970] | 8.23 ± 0.4
ATATGTATATATAAGGTGCAGAAAGGTGGGCAAAAG | 9.62 ± 0.18
TCATATATTTTAATATGTACACATTTTTTTGGTATA [XGTACX_site8695] | 8.54 ± 0.36
TTTTTCTTTATTAGCACACATAATATTATATATGTG [CACACA_site2629] | 8.62 ± 0.22
TACAGACTAAAATACACACACACACGCACATATATA [CACACA_site7875] | 8.73 ± 0.45
AAATAGAGAAATACAAGTACATATCAAACCAATATA [XGTACX_site1192] | 8.6 ± 0.43
CTTTTGTCATTCTTTTGTACACAGTTTGAAATATGT [XGTACX_site1457] | 8.9 ± 0.31
ATAATAAATAAATAATGTACATATGAAAGAATAAAT [XGTACX_site8355] | 9.06 ± 0.45
ATAAAAAAGAAACAAACACACATACATACAAACAAA [CACACA_site4256] | 8.9 ± 0.51
ATATTTGCATGTGGTAGTACATAACATTCTTTTACA [XGTACX_site8194] | 9.12 ± 0.25
ATATCTTATAATACGGTGCACTTGACATGAACAACT [GTGCAC_site9987] | 9.54 ± 0.38
ACATATTATATATGTGTGCACATATATATATATTTA [GTGCAC_site9591] | 8.47 ± 0.13
CTTCAATTAAAATTCACACATATAAATTAAAATATT [CACACA_site6129] | 8.2 ± 0.3
ATATATAATTAATTTTGTACACATAAAAAAAAAAAT [XGTACX_site6647] | 8.59 ± 0.42
AGAGAGAAAGCTATAACATGCAACAATTTTTTGAAA [TGCATGCA_site514] | 8.66 ± 0.44
AAATGACATTTCAAAAGTACATATTTAATTAATTAA [XGTACX_site2919] | 8.29 ± 0.45

Sequence | gcPBM binding intensity (ln)
TTTATATATATAATATGTACACATAATAATAATACA [XGTACX_site4862] | 8.54 ± 0.28
TTTATTTAAAAAGTTTGTACATATATATTATTTTGA [XGTACX_site6040] | 8.19 ± 0.26
ATATTATAGTTATGAACATGCAAACATTACGAAATA [TGCATGCA_site54] | 8.96 ± 0.27
CATATATAAATATATACACACATACATACATACATA [CACACA_site5988] | 8.73 ± 0.3
AAAAAATATTAGACTTATAAAGCATAAAGGATATTA [GTGCAC_negctrl_site588] | 8.51 ± 0.38
AATTTATTATTTTATTGTACGTATTTTTTTTTTTAT [XGTACX_site2298] | 8.75 ± 0.4
ATAAAAATAAAAAGTGTGCACACAAAAATATATATA [GTGCAC_site9931] | 9.21 ± 0.41
AAAAAGAACAGAAACACACAAATAAAATAAAATTGT [CACACA_site6921] | 8.83 ± 0.44
AAATGTTAATAAAGGTGTACACAAAATAAAAAAAAT [XGTACX_site463] | 9.28 ± 0.41
TTAATTGACATAAAAAGTACTCATATAGATATGCAC [XGTACX_site6391] | 8.46 ± 0.12
TAATTTTATTTTATATGTACGCAATACAAATATATA [XGTACX_site8461] | 8.47 ± 0.17
CACCCCCACAGACACACACACACACCCATATATATA [CACACA_site364] | 9.43 ± 0.25
AAGATTCATTGGTTCTGTACAAAATAAACACTATAA [XGTACX_site834] | 8.77 ± 0.68
AATATATATATTTAAGTGCATAATATTGTAATATTA | 8.54 ± 0.26
TTACCAAAAAAATGTAGTACAATATAATATTATTTA [XGTACX_site5750] | 8.73 ± 0.13
ATATATTATGAAGACTGTACATTTACATGAAAAAAA [XGTACX_site7203] | 8.66 ± 0.36
CGAAGGTTTGGCCATGCATGTTATAAGAATATATGT [TGCATGCA_site441] | 8.92 ± 0.42
TCATTTTATTATTCTACACACTTATCTATAATTACA [CACACA_site6168] | 8.74 ± 0.3
ATTCTATATATGTGCACACAAAAGATATATATATAT [CACACA_site2124] | 9.93 ± 0.26
TTACATGTACAAAAGTTGCACTTCATACACTTTTAT | 8.78 ± 0.33
TCATTTCAATACACAAGTACGTATATGGTTATATTG [XGTACX_site6021] | 8.52 ± 0.37
